Common to all, as to test: Primary Screen for Target Class Profiling of Small Molecule Inhibitors of Methyltransferases
For test [1], the target named is Glycine N-methyltransferase (Homo sapiens) (UniProt Q14749). The settings on record: purified enzyme, MTase-Glo SAH luminescence; measured here: GNMT inhibition; at 40 µM; stronger effect = lower value. The essentials:
(§1)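 Each enzyme was assayed with SAM and its substrate. SAH formation detected by MTase-Glo luminescence; single-point 40 uM screen[…].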

Test [2] has as its target Guanidinoacetate N-methyltransferase (Homo sapiens) (UniProt Q14353). The following applies: purified enzyme, MTase-Glo SAH luminescence; measured here: GAMT inhibition; at 40 µM; stronger effect = lower value. The essentials:
as §1

For test [3], the target named is Histamine N-methyltransferase (Homo sapiens) (UniProt P50135). The settings on record: purified enzyme, MTase-Glo SAH luminescence; measured here: HNMT inhibition; at 40 µM; stronger effect = lower value. The essentials:
as §1

Test [4] deals with Nicotinamide N-methyltransferase (Homo sapiens) (UniProt P40261). The following applies: purified enzyme, MTase-Glo SAH luminescence; measured here: NNMT inhibition; at 40 µM; stronger effect = lower value. Put shortly:
as §1

For test [5], the target named is Phenylethanolamine N-methyltransferase (Homo sapiens) (UniProt P11086). The following applies: purified enzyme, MTase-Glo SAH luminescence; measured here: PNMT inhibition; at 40 µM; stronger effect = lower value. The essentials: as §1

The text below walks through data of PubChem BioAssay AID1745853 (National Center for Advancing Translational Sciences (NCATS), 2022).

The other results are listed elsewhere or left out. These are further read-outs of the screen, such as a control signal, another cell line or another target. No call is given for them.
% is set by controls: 0 for no effect and ±100 for the full control effect.

In the case of `CC(C)C[C@H]1NC(=O)[C@@H]2C[C@@H](NC(=O)CS(=O)(=O)c3ccccc3)CCN2C1=O`, the activity change, negative = inhibition in test [1] was -3.59%; in test [2], -4.42%; in test [3], -4.32%; in test [4], -5.77%; in test [5], -2.22%.

Consider `COc1ccc(CCN(C)CCCC(C#N)(c2cc(OC)c(OC)c(OC)c2)C(C)C)cc1OC` (configuration not stated), for which the activity change, negative = inhibition in test [1] was -1.14%; in test [2], 10.2%; in test [3], -0.603%; in test [4], -6.3%; in test [5], 10.8%.

Take `COC(=N)c1nc2ccc3ncnc(Nc4ccc(F)cc4Br)c3c2s1`: the activity change, negative = inhibition in test [2] was 16.2%; in test [4], -20%; in test [5] it was 5.31%.

As for `Nc1nc2c(cnn2CCCc2ccc(O)cc2)c2nc(-c3ccco3)nn12`, the activity change, negative = inhibition was -7.62% in test [1]; -8.36% in test [2]; 0.391% in test [3]; -18.4% in test [4]; -3.68% in test [5].

With `Cc1ccc(F)cc1S(=O)(=O)N[C@@H]1CCN(Cc2ccc(OC(C)C)cc2)C1`, the activity change, negative = inhibition is -0.535% in test [1]; -2.9% in test [2]; -3.24% in test [3]; -17.1% in test [4]; -9.76% in test [5].

Take `COc1ccc(S(=O)(=O)N2CCC(OCCOc3ccccc3)CC2)cc1`: the activity change, negative = inhibition in test [1] came to 1.86%; in test [2], 2.77%; in test [3], 15.6%; in test [4], 6.91%; in test [5], 8.42%.

Turning to `CCOC(=O)c1cc2n(n1)CC(C)(C(=O)NCCCOC)N(c1ccc(OC)cc1)C2=O` (configuration not stated), the activity change, negative = inhibition in test [1] amounted to 10.3%; in test [2], 0.794%; in test [3] it was 9.22%; in test [4], 10%; in test [5], 9.35%.

`CC1(C(=O)NCc2ccccc2Cl)Cn2cnc(C(=O)NCCN3CCOCC3)c2C(=O)N1C1CC1` (configuration not stated): the activity change, negative = inhibition in test [1] was determined as 3.49%; in test [2], 0.95%; in test [3] it was 14.9%; in test [4], 3.89%; in test [5] it was 9.51%.

As for `CNC(=O)C(C)(C)N1CCC[C@H]1C(=O)NC1CCCCC1`, the activity change, negative = inhibition in test [1] was -5.44%; in test [2], -11.7%; in test [3], -3.97%; in test [4] it was -10.4%; in test [5], -12.2%.

Take `CCn1ncc(CN2CC[C@@H]3CN(S(C)(=O)=O)[C@@H]3C2)c1C`: the activity change, negative = inhibition in test [1] is -1.67%; in test [2], -2.64%; in test [3] it was 0.54%; in test [4], 2.06%; in test [5], -4.69%.

As to `O=C1NC(=O)C(c2c[nH]c3ccccc23)=C1c1c[nH]c2ccccc12`, the activity change, negative = inhibition in test [1] was -46.8%; in test [3] it was -57%; in test [4] it was -62.8%; in test [5], -64.3%.

With `CC(C)(C)c1cc(CN2CCN(CC(O)c3ccc(Cl)cc3)CC2)cc(C(C)(C)C)c1O` (configuration not stated), the activity change, negative = inhibition is 1.6% in test [1]; -0.261% in test [2]; 3.4% in test [3]; -16.2% in test [4]; -2.86% in test [5].

With `CCc1ccc(N2C(=O)c3cc4sc(CC)cc4n3CC2(C)C(=O)NC2CCC(C)CC2)cc1` (configuration not stated), the activity change, negative = inhibition was 0.587% in test [1]; 4.08% in test [2]; 0.965% in test [3]; 5.42% in test [4]; 0.029% in test [5].

`CCCn1c(=O)c2ccccc2n2c(SCC(=O)Nc3ccc(C)cc3C)nnc12`: the activity change, negative = inhibition in test [1] was -4.56%; in test [2], 0%; in test [3], -1.13%; in test [4] it was -5.53%; in test [5] it was 2.95%.

As to `O=C1NC2(CCCN([S+](=O)([O-])c3ccsc3)C2)COc2ccccc21` (configuration not stated), the activity change, negative = inhibition in test [1] was -1.85%; in test [2] it was 1.64%; in test [3], 0.599%; in test [4], -20.5%; in test [5], -10.5%.

Regarding `CC12CCC3c4ccc(OC5OC(C(=O)O)C(O)C(O)C5O)cc4CCC3C1CCC2O` (configuration not stated), the activity change, negative = inhibition is 2.62% in test [1]; 7.48% in test [2]; 12.5% in test [3]; -6.64% in test [4]; 2.2% in test [5].

Turning to `O=C1c2cc3sccc3n2CC(C(=O)NC2CCCCCC2)(c2ccccc2)N1Cc1ccccc1` (configuration not stated), the activity change, negative = inhibition was found to be 6.5% in test [1]; 0.221% in test [2]; 2.91% in test [3]; 7.34% in test [4]; 1.78% in test [5].

For `COc1cc(O)cc(C)c1C(=O)O[C@H]1[C@@H](OC(C)=O)[C@H](n2ccc(=O)[nH]c2=O)O[C@@H]1CO`, the activity change, negative = inhibition in test [1] was 2.34%; in test [2], 3.8%; in test [3], 11.4%; in test [4] it was -8.4%; in test [5], -3.08%.

For the compound `COc1cc(SC)ccc1C(=O)N[C@H]1CCN2C(=O)N(c3cccc(C(F)(F)F)c3)C(=O)[C@@H]2C1`, the activity change, negative = inhibition was -4.18% in test [1]; -2.26% in test [2]; -0.829% in test [3]; -13.5% in test [4]; -4.78% in test [5].

For the compound `CC[C@H](C)C(=O)O[C@H]1CCC=C2C=C[C@H](C)[C@H](CC[C@@H]3C[C@@H](O)CC(=O)O3)[C@H]21`, the activity change, negative = inhibition is -2.24% in test [1]; 10.4% in test [2]; 1.96% in test [3]; -9.77% in test [4]; 1.95% in test [5].

Take `N[C@@H]1c2cccnc2[C@H](OC(=O)N2CCC(n3c(=O)[nH]c4ncccc43)CC2)CC[C@H]1c1cccc(F)c1F`: the activity change, negative = inhibition was -10.9% in test [1]; 1.28% in test [2]; 6.47% in test [3]; -29.6% in test [4]; -4.82% in test [5].

With `CCCCN1C(=O)c2cc(C(=O)Nc3c(C)cc(C)cc3C)nn2CC1(C)C(=O)NC1CCCC1` (configuration not stated), the activity change, negative = inhibition is 5.62% in test [1]; 0.573% in test [2]; -8.45% in test [3]; 0.029% in test [4]; 4.09% in test [5].

As for `COC1CC(O[C@H]2CC[C@]3(C)C4CC[C@]5(C)C(C6=CC(=O)OC6)=CCC56OC46CC[C@@H]3C2)OC(C)C1O[C@@H]1O[C@H](CO[C@@H]2O[C@H](CO)[C@@H](O)[C@H](O)[C@H]2O)[C@@H](O)[C@H](O)[C@H]1O` (some centres not stated), the activity change, negative = inhibition in test [1] was 0%; in test [2] it was 4.52%; in test [3], 8.22%; in test [4] it was -9.89%; in test [5] it was 3.68%.

On to `c1ccc2cc(-c3noc([C@@H]4Cc5nc[nH]c5CN4CC4CCCCC4)n3)ccc2c1`, for which the activity change, negative = inhibition in test [1] was -9.13%; in test [2], -4.96%; in test [3], -5.86%; in test [4], -12%; in test [5] it was -5.07%.

As to `Cc1c(Cl)cccc1N1C(=O)c2cc3ccccc3n2CC1(C)C(=O)NC1CCCC1` (configuration not stated), the activity change, negative = inhibition in test [1] was 0.261%; in test [2] it was 4.7%; in test [3], -4.11%; in test [4], 2.62%; in test [5], -0.201%.

Consider `CC(C)Cn1c(=O)c2ccc(C(=O)NC(C)C)cc2n2c(SCC(=O)NC3CCCCC3)nnc12`, for which the activity change, negative = inhibition was 1.66% in test [1]; -0.12% in test [2]; 11.3% in test [3]; -1.01% in test [4]; -0.979% in test [5].

On to `COCC(=O)N[C@H]1CCN(C(=O)COC)[C@H](C(=O)N[C@@H](Cc2cccs2)C(N)=O)C1`, for which the activity change, negative = inhibition is 0.518% in test [1]; -0.673% in test [2]; 2.26% in test [3]; -1.6% in test [4]; 4.64% in test [5].

As for `CC(NC(=O)c1cc2n(n1)CC(C)(C(=O)NC1CCCC1)N(C)C2=O)c1ccccc1` (configuration not stated), the activity change, negative = inhibition in test [1] was 3.06%; in test [2], 2.49%; in test [3], 1.36%; in test [4], 1.84%; in test [5] it was -1.2%.

On to `COc1ccc(-c2cc3n(n2)CC(C)(C(=O)NCc2ccccc2)N(c2cc(C)cc(C)c2)C3=O)cc1` (configuration not stated), for which the activity change, negative = inhibition turned out to be 4.71% in test [1]; 0.313% in test [2]; 5.68% in test [3]; 4.13% in test [4]; 0.664% in test [5].
